Measured values from PubChem BioAssay AID504332 (National Center for Advancing Translational Sciences (NCATS), 2011).
Among all 350,000 compounds or so, about 31,000 (8.9%) were called active. The shares of active, inactive and inconclusive entries below differ from those in the screen. Calls follow the shape of the dose curve; as a rule, active = well fitted inhibition curve with a large enough effect; inconclusive = small, poorly fitted or top-dose-only effect; inactive = no such curve, though single readings can be large or run the other way. Potencies of inconclusive entries are doubtful fits and often do not repeat.

The molecules below were run against Histone-lysine N-methyltransferase EHMT2 (Homo sapiens) (UniProt Q96KQ7) (assay: qHTS Assay for Inhibitors of Histone Lysine Methyltransferase G9a). Details: G9a H3K9 monomethylation, AlphaScreen, 2 h; activity, negative = inhibition: at 59 µM (top of the series) unless noted.
UniProt Q96KQ7, sequence (Q96KQ7 whole entry, looked up): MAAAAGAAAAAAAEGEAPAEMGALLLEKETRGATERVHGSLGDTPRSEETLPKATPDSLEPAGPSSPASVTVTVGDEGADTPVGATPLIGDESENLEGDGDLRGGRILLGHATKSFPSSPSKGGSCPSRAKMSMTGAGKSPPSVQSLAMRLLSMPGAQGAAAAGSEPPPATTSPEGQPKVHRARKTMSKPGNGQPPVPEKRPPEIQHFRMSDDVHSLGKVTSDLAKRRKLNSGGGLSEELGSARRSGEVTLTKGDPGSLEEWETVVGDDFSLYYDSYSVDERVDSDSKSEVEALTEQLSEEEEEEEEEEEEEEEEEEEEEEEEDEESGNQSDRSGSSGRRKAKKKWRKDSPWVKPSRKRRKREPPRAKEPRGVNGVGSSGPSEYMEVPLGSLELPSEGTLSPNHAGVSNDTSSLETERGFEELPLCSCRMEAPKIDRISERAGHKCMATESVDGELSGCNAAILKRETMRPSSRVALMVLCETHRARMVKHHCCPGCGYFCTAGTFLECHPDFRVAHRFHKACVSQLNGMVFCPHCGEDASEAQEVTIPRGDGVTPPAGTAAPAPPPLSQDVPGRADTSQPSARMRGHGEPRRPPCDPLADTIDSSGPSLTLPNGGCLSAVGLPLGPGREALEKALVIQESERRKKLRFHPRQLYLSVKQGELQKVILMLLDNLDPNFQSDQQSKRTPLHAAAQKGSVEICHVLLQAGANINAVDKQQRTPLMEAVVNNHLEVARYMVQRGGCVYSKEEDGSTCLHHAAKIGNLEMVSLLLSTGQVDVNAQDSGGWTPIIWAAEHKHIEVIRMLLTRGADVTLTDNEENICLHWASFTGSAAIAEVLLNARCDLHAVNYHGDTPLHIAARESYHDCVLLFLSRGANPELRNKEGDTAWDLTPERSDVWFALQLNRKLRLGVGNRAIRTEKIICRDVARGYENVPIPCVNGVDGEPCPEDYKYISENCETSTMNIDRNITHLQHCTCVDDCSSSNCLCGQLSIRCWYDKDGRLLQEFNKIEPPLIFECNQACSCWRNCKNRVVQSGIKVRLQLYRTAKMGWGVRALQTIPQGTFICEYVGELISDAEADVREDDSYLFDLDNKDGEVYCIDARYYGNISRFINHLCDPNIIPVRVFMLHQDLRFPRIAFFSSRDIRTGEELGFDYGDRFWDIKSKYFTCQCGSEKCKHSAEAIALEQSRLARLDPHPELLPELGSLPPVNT
In short: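 Using a bead-based AlphaScreen, monomethylated H3K9 product from 2 h room-temperature reactions (G9a 20 nM, peptide 500 nM, SAM 20 uM) was detected with 0.5 ug/mL rabbit anti-H3K9me1 antibody.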
% is scaled to controls: 0 for no effect and ±100 for the full control effect; potency is read from the fitted curve at half-maximal effect; tags tell the direction and shape of the fitted curve.
Also: nearly all actives have a fitted effect of over 75% in size.

Compound | Potency | activity, negative = inhibition
COc1ccc(Cn2c(=O)c3oc4ccccc4c3n(Cc3cccc(C)c3)c2=O)cc1 | inactive | –
CC(Sc1nnc(COc2ccc3ccccc3c2)n1C)C(=O)O (stereo unspecified) | inconclusive: 50.1 µM [inhibitor, partial curve, poor fit] | –
COc1ccc(C(CNC(=O)/C=C/c2c(Cl)nc3ccccn23)N(C)C)cc1 (stereo unspecified) | inconclusive: 79.4 µM [inhibitor, single point] | –
CCCOc1ccc(C2c3c(oc4cc(C)c(C)cc4c3=O)C(=O)N2CCCN(C)C)cc1OCC (stereo unspecified) | inconclusive: 89.1 µM [inhibitor, single point] | –
CCc1cccc(NC2c3ccccc3C(=O)N2c2ccc(C)cn2)c1 (stereo unspecified) | inconclusive: 89.1 µM [inhibitor, single point] | –
O=C(Cn1nc(-c2ccco2)ccc1=O)Nc1ccc(Cl)c(Cl)c1 | inconclusive: 25.1 µM [inhibitor, single point] | –
CCOc1ccc(CCNC(=O)c2ccc3c(=O)n4c(nc3c2)CCCCC4)cc1 | inactive | –
CCc1cccc(CC)c1NC(=S)N1CCn2cccc2C1c1cccnc1 (stereo unspecified) | inconclusive: 25.1 µM [inhibitor, single point] | –
N/C(=N\OC(=O)CC1CCCCC1)c1ccc([N+](=O)[O-])cc1 | inconclusive: 39.8 µM [inhibitor, single point] | –
CN(C)CCCN(C(=O)c1ccc2c(c1)OCCO2)c1nc2ccccc2s1 | inactive | –
CC1(C)Cc2c(c(N3CCOCC3)nc3sc4c(NCCN5CCOCC5)nnnc4c23)CS1 | inconclusive: 28.2 µM [inhibitor, partial curve] | –
Nn1c(SCC(=O)Nc2cccnc2Cl)nnc1-c1ccccc1 | inconclusive: 1.41 µM [inhibitor, full curve, poor fit] | –
CCSc1nnc2ccc(-c3ccc(C)cc3)nn12 | inconclusive: 63.1 µM [inhibitor, partial curve, poor fit] | –
Cc1[nH]nc(SCC(=O)NCC(C)C)c1[N+](=O)[O-] | inconclusive: 89.1 µM [inhibitor, single point] | –
Cn1c(=O)c(=O)n(C)c2cc(S(=O)(=O)CCC(=O)NCc3ccccc3)ccc21 | inconclusive: 89.1 µM [inhibitor, single point] | –
C=C(C)CSc1nc(N)cc(=O)[nH]1 | inconclusive: 6.31 µM [inhibitor, single point] | –
COc1ccc(O)c(CN2CCN(CCc3ccccc3)C(CCO)C2)c1 (stereo unspecified) | inconclusive: 79.4 µM [inhibitor, single point] | –
O=C1c2ccccc2C(=O)N1CCCc1nc(-c2ccncc2)no1 | inconclusive: 50.1 µM [inhibitor, partial curve, poor fit] | –
CC1=C(C(=O)OCc2ccccc2)C(c2ccccc2)NC(=O)N1CCCCCC(=O)O (stereo unspecified) | active: 79.4 µM | –
c1ccc2c(c1)nnn2Cc1nnc2sc(-c3ccncc3)nn12 | inconclusive: 31.6 µM [inhibitor, full curve, poor fit] | –
Cc1c(C)n(CC(O)CNCCO)c2ccccc12 (stereo unspecified) | active: 8.91 µM | –
CC(C)(C)N(Cc1ccccc1)C(=O)COC(=O)CN1C(=O)C2CC=CCC2C1=O (stereo unspecified) | inconclusive: 79.4 µM [inhibitor, partial curve, poor fit] | –

Compound | Potency | activity, negative = inhibition
O=C(Nc1ccc2oc(-c3cccnc3)nc2c1)c1ccc(-c2ccc(OC(F)(F)F)cc2)o1 | inconclusive: 11.2 µM [inhibitor, partial curve, poor fit] | –
COc1cccc(-n2cc(-c3ccc(F)cc3)[nH]c2=S)c1 | – | inconclusive: -65.5% [inhibitor] [at 2.33 µM]
Cc1[nH]n(-c2ncc(-c3ccccc3)s2)c(=O)c1C(c1ccc(Cl)cc1)C(C#N)C#N (stereo unspecified) | inconclusive: 39.8 µM [inhibitor, single point] | –
Cc1cc(=O)oc2cc(OCC(=O)N3c4ccccc4CC3C)ccc12 (stereo unspecified) | inactive | –
CC(=O)Nc1ccc(NC(=O)C2CCCN2S(=O)(=O)c2ccc3c(c2)CCCC(=O)N3)cc1 (stereo unspecified) | inconclusive: 6.31 µM [inhibitor, single point] | –
CCCCN(C(=O)NC(=O)Nc1c(C)cc(C)cc1C)S(C)(=O)=O | inconclusive: 0.251 µM [inhibitor, partial curve, poor fit] | –
O=C(O)c1ccc2c(c1)CC(c1ccccc1)OC2=O (stereo unspecified) | inconclusive: 39.8 µM [inhibitor, partial curve, poor fit] | –
O=C1c2ccccc2S(=O)(=O)N1Cc1nc2ccccc2s1 | inconclusive: 79.4 µM [inhibitor, partial curve, poor fit] | –
COc1ccccc1CNC(=O)CNC(=O)[C@@H]1Cc2ccccc2CN1 | inconclusive: 89.1 µM [inhibitor, single point] | –
O=C(NC1CCCC1)C(c1ccc(F)cc1)N(Cc1ccc(F)cc1)C(=O)CCl (stereo unspecified) | active: 44.7 µM | –
COc1ccc(Cl)cc1NC(=O)Cn1c(=O)n2nc(C)nc2c2ccccc21 | inconclusive: 0.891 µM [inhibitor, full curve, poor fit] | –
Cc1cccc(NC(=O)C2CCN(S(=O)(=O)c3c(C)noc3/C=C/c3ccco3)CC2)n1 | inconclusive: 31.6 µM [inhibitor, single point] | –
CN1CCc2nc(NC(=O)COc3ccc4ccccc4c3)sc2C1 | inconclusive: 3.55 µM [inhibitor, partial curve, poor fit] | –
CCCCOC(=O)CNc1nnc(SCC(=O)OCC)[nH]c1=O | inconclusive: 3.98 µM [inhibitor, single point] | –
O=C(c1cccnc1)N1CCN(CCCc2ccccc2)CC1 | inconclusive: 35.5 µM [inhibitor, single point] | –
CN1CCc2nc3sc(C(=O)NCc4ccccc4)c(N)c3cc2C1 | active: 11.2 µM | –
COc1ccc(C)cc1NC(=O)COCC(=O)O | inconclusive: 28.2 µM [inhibitor, partial curve, poor fit] | –
COCc1cc(C)nc(OCC(=O)N/N=C/c2ccc(OC)c(OC)c2)c1C#N | inconclusive: 6.31 µM [inhibitor, single point] | –
Cc1ccc(NC(=S)Nc2cccc3cnccc23)cc1C | – | inactive: -4.35% [at 12.7 µM]
CC(=O)N1CCN(C(=O)CCN(c2ccccc2)S(=O)(=O)c2ccc(C)cc2)CC1 | – | inactive: -6.75% [at 0.501 µM]
N#Cc1c(-c2ccccc2)c(-c2ccccc2)n[nH]c1=O | inactive | –
Cc1ccc(-c2nc3cccnc3s2)cc1NS(=O)(=O)c1ccc2c(c1)OCCO2 | inactive | –

Compound | Potency | activity, negative = inhibition
CCCN1CCC(NC(=S)Nc2cccc(Cl)c2Cl)CC1 | inconclusive: 79.4 µM [inhibitor, partial curve, poor fit] | –
O=C(Oc1c(-c2ccco2)oc2ccccc2c1=O)c1cccnc1 | inconclusive: 56.2 µM [inhibitor, partial curve, poor fit] | –
CC(=O)Nc1ccc(S(=O)(=O)Oc2ccc(C(=S)N3CCC(O)CC3)cc2)cc1 | active: 17.8 µM | –
Cn1c(N=NC(=O)c2ccccc2)c(O)c2ccccc21 | inconclusive: 28.2 µM [inhibitor, single point] | –
COc1cc(/C=C2\SC(=S)N(N3CCOCC3)C2=O)cc(OC)c1OC | active: 12.6 µM | –
O=C(NCc1cccnc1)c1cnc2sccn2c1=O | inconclusive: 31.6 µM [inhibitor, partial curve, poor fit] | –
CC(=O)N1CCN(S(=O)(=O)c2cccc(C(=O)Nc3nc4c(s3)CCCC4)c2)CC1 | inactive | –
Cc1nnc(N2CCCC(C(=O)NCc3ccccc3F)C2)c2nn(-c3ccc(Cl)cc3)c(C)c12 (stereo unspecified) | inactive | –
O=C(CC1CC2CCC1C2)N1CCN(S(=O)(=O)c2ccccc2F)CC1 (stereo unspecified) | inactive | –
COc1ccc(NC(=O)CSc2ncccc2C(=O)O)cc1OC | inconclusive: 39.8 µM [inhibitor, single point] | –
COc1cc(C(=S)N2CCN(c3ccccc3Cl)CC2)cc(O)c1O | active: 1.78 µM | –
COc1ccc(CCNC(=S)NCc2cccs2)cc1OC | inconclusive: 79.4 µM [inhibitor, single point] | –
O=C(Nc1ccccc1CC[N+](=O)[O-])N1CCN(c2ccccc2)CC1 | inconclusive: 44.7 µM [inhibitor, partial curve, poor fit] | –
Nc1nonc1C(=O)N/N=C/c1cc(Br)ccc1O | inconclusive: 14.1 µM [inhibitor, full curve] | –
COc1cccc(Cn2c(=O)c(-c3cc(F)cc(F)c3)nc3cnc(N4CCNCC4)nc32)c1 | – | inactive: 4.09% [at 0.501 µM]
c1ccc(Nc2nnc(-c3cccnc3)s2)cc1 | inactive | –
CO/N=C/CC(=O)c1cnc(-c2ccccc2)s1 | inconclusive: 79.4 µM [inhibitor, single point] | –
CCN(CC)CCNC(=O)c1ccc2c(c1)NC(=O)C(CS(=O)(=O)Cc1cccc(Br)c1)N2 (stereo unspecified) | inconclusive: 15.8 µM [inhibitor, partial curve] | –
CCn1ccnc1CN(C)C(=O)c1cc(COc2ccc(OC)c3ccccc23)on1 | inactive | –
O=C(CC1SC(=Nc2ccccc2)N(CCc2c[nH]c3ccccc23)C1=O)Nc1ccccc1F (stereo unspecified) | inconclusive: 22.4 µM [inhibitor, single point] | –
COc1ccc(S(=O)(=O)Nc2ccc3cn[nH]c3c2)cc1[N+](=O)[O-] | – | inactive: -20.9% [at 12.7 µM]
CC(C)(C)NC(=O)CSc1nc2ccc(NC(=O)CSc3nnnn3Cc3ccccc3)cc2s1 | inconclusive: 89.1 µM [inhibitor, single point] | –
